Target: hepatitis C virus RNA dependent polymerase (NS5B) (Hepacivirus hominis (Hepatitis C virus), UniProt P26663)
Assay: Inhibition of NS5B RNA dependent RNA polymerase activity (SPA, UMP-[5,6 3H] incorporation)
Settings: not given

**Q.** Which IC50 does the source give for `O=C(N[C@H](Cc1c[nH]c2ccccc12)C(=O)O)c1ccc2c(c1)nc(-c1ccoc1)n2C1CCCCC1` [Entry 1233] here?
**A.** 5 to 10 µM

Same assay, conditions: IC50 μM, Table 2

**Q.** For `O=C(N[C@@H](Cc1c[nH]c2ccc(O)cc12)C(=O)O)c1ccc2c(c1)nc(-c1ccccc1)n2C1CCCCC1` [Entry 2139], which IC50 is on record?
**A.** < 1 µM

**Q.** Which IC50 does the source give for `O=C(N[C@@H](Cc1c[nH]c2ccc(O)cc12)C(=O)O)c1ccc2c(c1)nc(-c1cnccn1)n2C1CCCCC1` [Entry 2112] here?
**A.** < 1 µM

**Q.** With `CCOc1ccc(C(C)NC(=O)c2ccc3c(c2)nc(-c2ccccn2)n3C2CCCCC2)cc1OCC` (stereo not shown) [Entry 2045] as the compound, how does the IC50 read?
**A.** 1 to 5 µM

**Q.** With `COc1ccc(C(NC(=O)c2ccc3c(c2)nc(-c2ccc(OCC(=O)NCCCN(C)C)cc2)n3C2CCCCC2)C(=O)O)cc1OC` (stereo not shown) [Entry 2026] as the compound, how does the IC50 read?
**A.** 10 to 25 µM

**Q.** `C[C@@H](NC(=O)c1ccc2c(c1)nc(-c1ccc(OCC(=O)NCCCN(C)C)cc1)n2C1CCCCC1)c1ccc2ccccc2c1` [Entry 2071] was tested. Which IC50 did it give?
**A.** 1 to 5 µM

**Q.** Which IC50 does the source give for `COc1ccc(C(NC(=O)c2ccc3c(c2)nc(-c2ccc(O)c(C(=O)O)c2)n3C2CCCCC2)C(=O)O)cc1OC` (stereo not shown) [Entry 2082] here?
**A.** 5 to 10 µM

**Q.** `CN(C)c1cccc2c(S(=O)(=O)NCCNC(=O)c3ccc(-c4nc5cc(C(=O)N[C@@H](Cc6c[nH]c7ccc(OCC(=O)O)cc67)C(=O)O)ccc5n4C4CCCCC4)cc3)cccc12` [Entry 2130, (S)-3-(5-Carboxymethoxy-1H-indol-3-yl)-2-{[1-(1-cyclohexyl-2-{4-[2-(5-dimethylamino-naphthalene-1-sulfonylamino)-ethylcarbamoyl]-phenyl}-1H-benzimidazol-5-yl)-methanoyl]-amino}-propionic Acid] was tested. Which IC50 did it give?
**A.** 1 to 5 µM

**Q.** How did the IC50 turn out when `COc1ccc(C(NC(=O)c2ccc3c(c2)nc(-c2ccsc2)n3C2CCCCC2)C(=O)O)cc1OC` (stereo not shown) [Entry 2067] was run?
**A.** 1 to 5 µM

**Q.** With `O=C(N[C@@H](Cc1c[nH]c2ccc(O)cc12)C(=O)O)c1ccc2c(c1)nc(-c1ccc(S(=O)(=O)O)o1)n2C1CCCCC1` [Entry 2107] as the compound, how does the IC50 read?
**A.** 1 to 5 µM

**Q.** With `CN(C)CCCNC(=O)COc1ccc(-c2nc3cc(C(=O)NCc4ccc(S(C)(=O)=O)cc4)ccc3n2C2CCCCC2)cc1` [Entry 2039] as the compound, how does the IC50 read?
**A.** 10 to 25 µM

**Q.** Which IC50 does the source give for `O=C(N[C@H](CO)c1ccccc1)c1ccc2c(c1)nc(-c1ccccn1)n2C1CCCCC1` [Entry 2010] here?
**A.** 10 to 25 µM

Same assay, conditions: IC50 μM, Table 5

**Q.** For `Cc1c(C(=O)N[C@@H](Cc2c[nH]c3ccc(O)cc23)C(=O)O)ccc2c1nc(-c1ccoc1)n2C1CCCCC1` [Entry 5007, (S)-2-{[1-(1-Cyclohexyl-2-furan-3-yl-4-methyl-1H-benzimidazol-5-yl)-methanoyl]-amino}-3-(5-hydroxy-1H-indol-3-yl)-propionic Acid], which IC50 is on record?
**A.** < 1 µM

Same assay, conditions: IC50 μM, Table 6

**Q.** `O=C(O)[C@@H]1Cc2c([nH]c3ccc(O)cc23)CN1C(=O)c1ccc2c(c1)nc(-c1ccoc1)n2C1CCCCC1` [Entry 6005] was tested. Which IC50 did it give?
**A.** 5 to 10 µM

**Q.** For `O=C(O)C=Cc1ccc(OC2CC(C(=O)O)N(C(=O)c3ccc4c(c3)nc(-c3ccoc3)n4C3CCCCC3)C2)cc1` [Entry 6003, (2S,4R)4-[4-((Z)-2-Carboxy-viny)-phenoxy]-1-[1-(1-cyclohexyl-2-furan-3-yl-1H-benzimidazol-5-yl)-methanoyl]-pyrrolidine-2-carboxylic Acid], which IC50 is on record?
**A.** 5 to 10 µM

Same assay, conditions: IC50 μM, Table 7

**Q.** How did the IC50 turn out when `O=C(O)c1ccc2c(c1)nc(-c1cc(Br)cs1)n2C1CCCCC1` [Entry 7027] was run?
**A.** 5 to 10 µM

**Q.** Which IC50 does the source give for `O=C(O)c1ccc2c(c1)nc(-c1ncc[nH]1)n2C1CCCCC1` [Entry 7004] here?
**A.** 10 to 25 µM

**Q.** `O=C(O)c1ccc2c(c1)nc(-c1cccs1)n2C1CCCCC1` [Entry 7026] was tested. Which IC50 did it give?
**A.** 1 to 5 µM

Same assay, conditions: IC50 μM, Table 22

**Q.** How did the IC50 turn out when `O=C(N[C@@H](Cc1c[nH]c2ccc(O)cc12)C(=O)O)c1ccc2c(c1)nc(-c1ccoc1)n2C1CCCCCC1` [Entry 22016] was run?
**A.** < 1 µM

**Q.** With `COC(=O)[C@H](Cc1c[nH]c2ccc(OCC(=O)O)cc12)NC(=O)c1ccc2c(c1)nc(-c1ccoc1)n2[C@@H]1CCCC[C@H]1O` [Entry 22005] as the compound, how does the IC50 read?
**A.** < 1 µM

Same assay, conditions: IC50 μM, first compound table (printed title TABLE 10; Table 1)

**Q.** Which IC50 does the source give for `CC(C)(CC(=O)O)C(=O)NC1CCCC(NC(=O)c2ccc3c(c2)nc(-c2ccoc2)n3C2CCCCC2)C1` (stereo not shown) [Entry 1226] here?
**A.** 5 to 10 µM

**Q.** Which IC50 does the source give for `COc1ccc([C@H](C)NC(=O)c2ccc3c(c2)nc(-c2ccoc2)n3C2CCCCC2)cc1OC` [Entry 1004] here?
**A.** 1 to 5 µM

**Q.** `O=C(O)CCNC(=O)N1CCC(CNC(=O)c2ccc3c(c2)nc(-c2ccoc2)n3C2CCCCC2)CC1` [Entry 1211] was tested. Which IC50 did it give?
**A.** 10 to 25 µM

**Q.** With `CC(CC(=O)Nc1ccc(CCCC(=O)O)cc1)NC(=O)c1ccc2c(c1)nc(-c1ccoc1)n2C1CCCCC1` (stereo not shown) [Entry 1164] as the compound, how does the IC50 read?
**A.** 10 to 25 µM

**Q.** Which IC50 does the source give for `O=C(N[C@@H](Cc1ccc(O)cc1)C(=O)O)c1ccc2c(c1)nc(-c1ccoc1)n2C1CCCCC1` [Entry 1040, (S)-2-([1-(1-Cyclohexyl-2-furan-3-yl-1H-benzoimidazol-5-yl)methanoyl]amino}-3-(4-hydroxyphenyl)propionic Acid] here?
**A.** < 1 µM

**Q.** `N#Cc1ccc(C[C@H](NC(=O)c2ccc3c(c2)nc(-c2ccoc2)n3C2CCCCC2)C(=O)O)cc1` [Entry 1024] was tested. Which IC50 did it give?
**A.** 1 to 5 µM

**Q.** For `O=C(NC(C(=O)O)c1ccc(Cl)cc1)c1ccc2c(c1)nc(-c1ccoc1)n2C1CCCCC1` (stereo not shown) [Entry 1012], which IC50 is on record?
**A.** 1 to 5 µM

**Q.** With `O=C(N[C@@H](Cc1ccc(F)cc1)C(=O)O)c1ccc2c(c1)nc(-c1ccoc1)n2C1CCCCC1` [Entry 1020] as the compound, how does the IC50 read?
**A.** 1 to 5 µM

**Q.** For `COc1ccc(C(NC(=O)c2ccc3c(c2)nc(-c2ccoc2)n3C2CCCCC2)C(=O)O)cc1` (stereo not shown) [Entry 1014], which IC50 is on record?
**A.** 1 to 5 µM

**Q.** Which IC50 does the source give for `CC(C)[C@H](Cc1ccc(OCC(=O)O)cc1)NC(=O)c1ccc2c(c1)nc(-c1ccoc1)n2C1CCCCC1` [Entry 1088] here?
**A.** 1 to 5 µM

**Q.** Which IC50 does the source give for `O=C(O)CCNC(=O)NC1CCCC(NC(=O)c2ccc3c(c2)nc(-c2ccoc2)n3C2CCCCC2)C1` (stereo not shown) [Entry 1213] here?
**A.** 10 to 25 µM

**Q.** `COC(=O)COc1ccc(C[C@H](NC(=O)c2ccc3c(c2)nc(-c2ccoc2)n3C2CCCCC2)C(=O)O)cc1` [Entry 1124, (S)-2-{[1-(1-Cyclohexyl-2-furan-3-yl-1H-benzimidazol-5-yl)-methanoyl]-amino}-3-(4-methoxycarbonylmethoxy-phenyl)-propionic Acid] was tested. Which IC50 did it give?
**A.** 1 to 5 µM

**Q.** How did the IC50 turn out when `O=C(O)c1cccc(CN2CCC(NC(=O)c3ccc4c(c3)nc(-c3ccoc3)n4C3CCCCC3)C2)c1` (stereo not shown) [Entry 1287] was run?
**A.** 1 to 5 µM

**Q.** `CC(CC(=O)Nc1cccc(CC(=O)O)c1)NC(=O)CC(C)NC(=O)c1ccc2c(c1)nc(-c1ccoc1)n2C1CCCCC1` (stereo not shown) [Entry 1168] was tested. Which IC50 did it give?
**A.** 10 to 25 µM

Same assay, conditions: IC50, Table 11

**Q.** `COC(=O)[C@H](Cc1cn(C)c2ccc(O)cc12)NC(=O)c1ccc2c(c1)nc(-c1ccoc1)n2C1CCCCC1` [Entry 11028, (S)-2-{[1-(1-Cyclohexyl-2-furan-3-yl-1H-benzimidazol-5-yl)methanoyl]amino}-3-(5-hydroxy-1-methyl-1H-indol-3-yl)-propionic Acid Methyl Ester] was tested. Which IC50 did it give?
**A.** < 1 µM

**Q.** Which IC50 does the source give for `Cn1cc(C[C@H](NC(=O)c2ccc3c(c2)nc(-c2ccoc2)n3C2CCCCC2)C(=O)O)c2cc(OC(C)(C)C(=O)O)ccc21` [Entry 11030] here?
**A.** < 1 µM

**Q.** How did the IC50 turn out when `Nc1ccc2[nH]cc(C[C@H](NC(=O)c3ccc4c(c3)nc(-c3ccoc3)n4C3CCCCC3)C(=O)O)c2c1` [Entry 11023, (S)-3-(5-Amino-1H-indol-3-yl)-2-{[1-(1-cyclohexyl-2-furan-3-yl-1H-benzimidazol-5-yl)-methanoyl]-amino}-propionic Acid] was run?
**A.** < 1 µM

**Q.** `O=C(NCCc1c[nH]c2ccc(O)cc12)c1ccc2c(c1)nc(-c1ccoc1)n2C1CCCCC1` [Entry 11001] was tested. Which IC50 did it give?
**A.** < 1 µM

Same assay, conditions: IC50, Table 12

**Q.** For `O=C(N[C@@H](Cc1c[nH]c2ccc(O)cc12)C(=O)O)c1ccc2c(c1)nc(-c1ccc3c(c1)OCO3)n2C1CCCCC1` [Entry 12004], which IC50 is on record?
**A.** < 1 µM

**Q.** Which IC50 does the source give for `O=C(O)COc1ccc2[nH]cc(C[C@H](NC(=O)c3ccc4c(c3)nc(-c3ccc(F)cc3)n4C3CCCCC3)C(=O)O)c2c1` [Entry 12023] here?
**A.** < 1 µM

Same assay, conditions: IC50, Table 13

**Q.** With `O=C(N[C@@H](Cc1c[nH]c2ccc(O)cc12)C(=O)NC(CO)CO)c1ccc2c(c1)nc(-c1ccoc1)n2C1CCCCC1` [Entry 13014, 1-Cyclohexyl-2-furan-3-yl-1H-benzimidazole-5-carboxylic Acid [(S)-1-(2-Hydroxy-1-hydroxymethyl-ethylcarbamoyl)-2-(5-hydroxy-1H-indol-3-yl)-ethyl]-amide] as the compound, how does the IC50 read?
**A.** < 1 µM

Same assay, conditions: IC50, Table 14

**Q.** For `Cn1cc(C[C@H](NC(=O)c2ccc3c(c2)nc(-c2ccoc2)n3C2CCCCC2)c2csc(N)n2)c2cc(O)ccc21` [Entry 14003, 1-Cyclohexyl-2-furan-3-yl-1H-benzimidazole-5-carboxylic Acid [(S)-1-(2-Amino-thiazol-4-yl)-2-(5-hydroxy-1-methyl-1H-indol-3-yl)-ethyl]-amide], which IC50 is on record?
**A.** < 1 µM

**Q.** With `Cc1nc([C@H](Cc2c[nH]c3ccc(O)cc23)NC(=O)c2ccc3c(c2)nc(-c2ccoc2)n3C2CCCCC2)cs1` [Entry 14001, 1-Cyclohexyl-2-furan-3-yl-1H-benzimidazole-5-carboxylic Acid [(S)-2-(5-Hydroxy-1H-indol-3-yl)-1-(2-methyl-thiazol-4-yl)-ethyl]-amide] as the compound, how does the IC50 read?
**A.** < 1 µM

Same assay, conditions: IC50, Table 16

**Q.** `Cn1nnnc1-c1ccc(C[C@H](NC(=O)c2ccc3c(c2)nc(-c2ccoc2)n3C2CCCCC2)C(=O)O)cc1` [Entry 16037] was tested. Which IC50 did it give?
**A.** < 1 µM

**Q.** How did the IC50 turn out when `NC(=O)[C@H](Cc1ccc(O)cc1)NC(=O)c1ccc2c(c1)nc(-c1ccoc1)n2C1CCCCC1` [Entry 16021] was run?
**A.** < 1 µM

**Q.** For `COC(=O)[C@H](Cc1ccc(NC#N)cc1)NC(=O)c1ccc2c(c1)nc(-c1ccoc1)n2C1CCCCC1` [Entry 16027], which IC50 is on record?
**A.** < 1 µM

**Q.** `O=C(O)COc1ccc(C[C@H](NC(=O)c2ccc3c(c2)nc(-c2ccoc2)n3C2CCCCC2)C(=O)O)cc1` [Entry 16011, (S)-3-(4-Carboxymethoxyphenyl)-2-{[1-(1-cyclohexyl-2-furan-3-yl-1H-benzoimidazol-5-yl)methanoyl]amino}propionic Acid] was tested. Which IC50 did it give?
**A.** < 1 µM

**Q.** `COc1ccc(C[C@H](NC(=O)c2ccc3c(c2)nc(-c2ccoc2)n3C2CCCCC2)C(=O)O)cc1/C=C/C(=O)O` [Entry 16051, (E)-3-[5-((S)-2-Carboxy-2-{[1-(1-cyclohexyl-2-furan-3-yl-1H-benzimidazol-5-yl)-methanoyl]-amino}-ethyl)-2-methoxy-phenyl]-acrylic Acid] was tested. Which IC50 did it give?
**A.** < 1 µM

**Q.** For `NC(=O)[C@H](Cc1ccc(-c2nnn[nH]2)cc1)NC(=O)c1ccc2c(c1)nc(-c1ccoc1)n2C1CCCCC1` [Entry 16023], which IC50 is on record?
**A.** < 1 µM

Source: patent US6448281B1 (Boehringer Ingelheim (Canada) Ltd., priority 2000, dated 2002)
